According to publication PMC4381075, “An intrinsically disordered region of methyl-CpG binding domain protein 2 (MBD2) recruits the histone deacetylase core of the NuRD complex”:
Results are given in words; binding and its absence hold for the method and conditions named. Binding seen in cells or lysates may run through a third protein. Some results given as binding are weak or reduced against the parent protein; the word gives no strength.

The chains behind the UniProt entries cited, without tags or fusion partners. Where a name states a change or a piece, a line headed by the entry shows the natural chain unless it says otherwise. A line that says so, or that is headed by a name, gives the form on record, which may keep a tag or linker. Residues count along the entry.
flag-tagged MBD2IDR (without scMBD2-p66α) (Q9UBB5, residues 212-360): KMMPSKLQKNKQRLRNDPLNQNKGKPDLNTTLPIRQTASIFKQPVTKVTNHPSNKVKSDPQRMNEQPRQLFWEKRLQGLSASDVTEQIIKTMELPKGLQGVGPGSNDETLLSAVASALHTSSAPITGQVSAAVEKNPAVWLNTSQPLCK
flag-tagged MBD2IDR first and second sub-regions in combination (amino acids 212–316) (Q9UBB5, residues 212-316): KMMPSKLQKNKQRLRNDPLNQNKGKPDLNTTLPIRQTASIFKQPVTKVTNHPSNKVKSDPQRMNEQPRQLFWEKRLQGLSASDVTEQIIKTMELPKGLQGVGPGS
flag-tagged MBD2IDR first sub-region (amino acids 212–273) (Q9UBB5, residues 212-273): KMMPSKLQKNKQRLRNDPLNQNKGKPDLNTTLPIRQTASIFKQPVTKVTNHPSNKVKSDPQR
flag-tagged MBD2IDR second sub-region (amino acids 274–316) (Q9UBB5, residues 274-316): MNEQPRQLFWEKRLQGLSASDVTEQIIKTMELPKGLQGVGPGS
flag-tagged MBD2IDR third sub-region (amino acids 317–360) (Q9UBB5, residues 317-360): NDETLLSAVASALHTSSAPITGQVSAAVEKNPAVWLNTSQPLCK
UniProt Q86YP4: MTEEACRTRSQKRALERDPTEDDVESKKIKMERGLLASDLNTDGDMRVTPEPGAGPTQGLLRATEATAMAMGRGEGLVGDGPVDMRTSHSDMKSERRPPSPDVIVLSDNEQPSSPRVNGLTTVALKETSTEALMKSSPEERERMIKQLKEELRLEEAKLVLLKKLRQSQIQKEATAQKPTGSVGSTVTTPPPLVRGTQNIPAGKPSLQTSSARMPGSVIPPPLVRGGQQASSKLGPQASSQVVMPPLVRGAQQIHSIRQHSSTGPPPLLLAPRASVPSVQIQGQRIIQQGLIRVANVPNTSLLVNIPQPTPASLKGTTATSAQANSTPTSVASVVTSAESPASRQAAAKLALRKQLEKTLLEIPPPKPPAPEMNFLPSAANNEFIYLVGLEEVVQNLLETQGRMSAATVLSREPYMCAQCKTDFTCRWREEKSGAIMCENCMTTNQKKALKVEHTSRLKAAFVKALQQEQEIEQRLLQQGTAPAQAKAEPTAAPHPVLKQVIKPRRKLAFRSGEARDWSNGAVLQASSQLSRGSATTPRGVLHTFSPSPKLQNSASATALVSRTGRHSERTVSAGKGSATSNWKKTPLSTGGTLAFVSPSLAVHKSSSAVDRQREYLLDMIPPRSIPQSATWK
UniProt Q14839: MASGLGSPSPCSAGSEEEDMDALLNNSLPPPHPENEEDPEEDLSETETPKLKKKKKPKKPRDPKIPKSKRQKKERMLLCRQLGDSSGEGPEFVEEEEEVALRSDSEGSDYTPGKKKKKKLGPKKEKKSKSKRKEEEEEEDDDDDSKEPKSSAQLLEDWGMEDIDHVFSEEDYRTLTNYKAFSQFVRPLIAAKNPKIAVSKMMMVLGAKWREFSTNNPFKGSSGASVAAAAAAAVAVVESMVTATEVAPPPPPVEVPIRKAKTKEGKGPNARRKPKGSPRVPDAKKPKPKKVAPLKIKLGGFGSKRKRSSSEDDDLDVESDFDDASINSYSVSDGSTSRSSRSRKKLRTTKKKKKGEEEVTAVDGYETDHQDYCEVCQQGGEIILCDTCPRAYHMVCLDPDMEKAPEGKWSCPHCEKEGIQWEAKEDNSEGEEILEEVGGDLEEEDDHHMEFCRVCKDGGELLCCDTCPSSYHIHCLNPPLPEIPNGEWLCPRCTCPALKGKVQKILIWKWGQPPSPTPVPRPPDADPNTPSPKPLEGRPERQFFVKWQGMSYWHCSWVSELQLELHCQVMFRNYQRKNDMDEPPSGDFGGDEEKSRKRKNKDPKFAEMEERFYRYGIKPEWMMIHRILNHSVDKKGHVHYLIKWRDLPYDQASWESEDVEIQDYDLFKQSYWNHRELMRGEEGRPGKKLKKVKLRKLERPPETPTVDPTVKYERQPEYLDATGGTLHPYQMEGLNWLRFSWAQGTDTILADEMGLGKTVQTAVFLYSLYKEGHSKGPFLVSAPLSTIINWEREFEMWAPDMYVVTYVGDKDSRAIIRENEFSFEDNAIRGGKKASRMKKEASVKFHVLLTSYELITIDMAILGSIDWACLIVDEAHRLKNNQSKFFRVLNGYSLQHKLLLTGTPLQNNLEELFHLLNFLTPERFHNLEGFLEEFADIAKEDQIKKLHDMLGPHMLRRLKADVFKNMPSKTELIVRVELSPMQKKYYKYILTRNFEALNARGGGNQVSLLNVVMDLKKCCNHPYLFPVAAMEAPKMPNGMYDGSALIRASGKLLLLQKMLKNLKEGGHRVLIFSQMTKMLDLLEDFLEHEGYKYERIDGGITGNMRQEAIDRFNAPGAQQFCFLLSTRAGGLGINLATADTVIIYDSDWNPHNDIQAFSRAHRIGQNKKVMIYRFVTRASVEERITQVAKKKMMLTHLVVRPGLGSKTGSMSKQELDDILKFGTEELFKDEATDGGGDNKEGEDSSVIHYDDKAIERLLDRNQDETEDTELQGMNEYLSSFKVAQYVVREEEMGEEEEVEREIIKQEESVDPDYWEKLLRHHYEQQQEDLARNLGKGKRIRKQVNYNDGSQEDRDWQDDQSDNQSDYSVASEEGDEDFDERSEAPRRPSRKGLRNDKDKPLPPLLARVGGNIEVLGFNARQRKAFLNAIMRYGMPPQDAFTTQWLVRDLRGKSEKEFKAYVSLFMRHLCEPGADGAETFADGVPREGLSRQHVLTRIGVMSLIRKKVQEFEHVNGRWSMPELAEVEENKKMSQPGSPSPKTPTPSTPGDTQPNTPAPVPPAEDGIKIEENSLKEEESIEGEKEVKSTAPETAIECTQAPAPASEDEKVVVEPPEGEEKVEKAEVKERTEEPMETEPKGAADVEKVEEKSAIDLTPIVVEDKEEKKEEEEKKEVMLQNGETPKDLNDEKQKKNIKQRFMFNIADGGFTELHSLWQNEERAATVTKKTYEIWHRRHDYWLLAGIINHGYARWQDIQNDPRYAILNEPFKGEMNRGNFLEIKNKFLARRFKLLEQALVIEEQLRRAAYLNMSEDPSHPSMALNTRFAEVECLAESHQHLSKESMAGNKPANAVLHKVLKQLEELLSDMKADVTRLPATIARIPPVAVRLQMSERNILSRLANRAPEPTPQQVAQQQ
UniProt Q92769: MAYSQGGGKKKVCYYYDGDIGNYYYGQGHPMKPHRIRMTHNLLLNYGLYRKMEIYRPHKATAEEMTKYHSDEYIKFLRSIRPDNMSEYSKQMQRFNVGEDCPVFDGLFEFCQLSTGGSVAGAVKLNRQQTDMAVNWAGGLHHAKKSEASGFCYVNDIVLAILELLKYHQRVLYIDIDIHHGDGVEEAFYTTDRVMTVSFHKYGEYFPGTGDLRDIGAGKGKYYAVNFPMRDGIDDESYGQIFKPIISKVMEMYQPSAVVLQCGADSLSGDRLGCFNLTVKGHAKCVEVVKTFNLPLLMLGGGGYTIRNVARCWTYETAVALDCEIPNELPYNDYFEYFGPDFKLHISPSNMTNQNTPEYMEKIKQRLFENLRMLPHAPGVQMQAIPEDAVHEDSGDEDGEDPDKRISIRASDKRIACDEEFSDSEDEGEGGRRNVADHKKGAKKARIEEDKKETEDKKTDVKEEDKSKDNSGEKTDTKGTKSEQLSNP
UniProt Q09028: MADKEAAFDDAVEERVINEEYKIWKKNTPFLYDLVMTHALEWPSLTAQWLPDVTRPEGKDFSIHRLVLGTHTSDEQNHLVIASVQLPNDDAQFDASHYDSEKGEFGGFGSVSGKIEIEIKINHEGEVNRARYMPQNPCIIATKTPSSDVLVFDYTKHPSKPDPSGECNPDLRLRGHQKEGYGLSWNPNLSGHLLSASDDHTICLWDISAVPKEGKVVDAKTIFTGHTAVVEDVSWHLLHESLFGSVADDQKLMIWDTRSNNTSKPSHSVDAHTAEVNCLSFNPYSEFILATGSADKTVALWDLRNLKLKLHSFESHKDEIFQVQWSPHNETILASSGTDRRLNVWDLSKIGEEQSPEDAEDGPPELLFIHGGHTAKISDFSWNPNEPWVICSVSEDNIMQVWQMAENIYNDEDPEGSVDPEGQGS

Legend:
Test in all cases: co-IP; HEK 293T transfected with flag-tagged MBD2 constructs; lysate immunoprecipitated with anti-flag M2 antibody (mouse IgG control); western blot for endogenous NuRD components
[1] = target: flag-tagged MBD2IDR (without scMBD2-p66α) (human) (UniProt Q9UBB5)
[2] = target: flag-tagged MBD2IDR third sub-region (amino acids 317–360) (human) (UniProt Q9UBB5)
[3] = target: flag-tagged MBD2IDR second sub-region (amino acids 274–316) (human) (UniProt Q9UBB5)
[4] = target: flag-tagged scMBD2-p66α (single-chain coiled-coil construct) (human) (UniProt Q9UBB5+Q86YP4)
[5] = target: flag-tagged MBD2IDR first sub-region (amino acids 212–273) (human) (UniProt Q9UBB5)
[6] = target: flag-tagged MBD2IDR first and second sub-regions in combination (amino acids 212–316) (human) (UniProt Q9UBB5)
[7] = target: flag-tagged MBD2IDR with scMBD2-p66α (human) (UniProt Q9UBB5+Q86YP4)

| Substance | binding [1] | binding [2] | binding [3] | binding [4] | binding [5] | binding [6] | binding [7] |
| --- | --- | --- | --- | --- | --- | --- | --- |
| CHD4 (from UniProt Q14839 1-1912) (enzyme) | no binding |  |  |  |  |  |  |
| HDAC2 (from UniProt Q92769 1-488) (enzyme) | binds | no binding | no binding | no binding | no binding | binds | binds |
| RbAp48 (from UniProt Q09028 1-425) | binds | no binding | no binding | no binding | no binding | binds | binds |
